In PubChem BioAssay AID2100 (National Center for Advancing Translational Sciences (NCATS), 2009):
Where “and” joins values, the source holds several entries; their conditions need not be identical. Equal values may be shown once. Screen size: about 300,000 compounds; about 1,200 (0.4%) were called active. Inconclusive means that the source gave no clear call. Such entries were picked first, then a sample of the others. Calls follow the shape of the dose curve; as a rule, active = well fitted inhibition curve with a large enough effect; inconclusive = small, poorly fitted or top-dose-only effect, or another doubt; inactive = no such curve, though single readings can be large or run the other way. Potencies of inconclusive entries are doubtful fits and often do not repeat.

What follows are compounds tested against Lysosomal alpha-glucosidase (Homo sapiens) (UniProt P10253) (assay: qHTS Assay for Inhibitors and Activators of Human alpha-Glucosidase Cleavage of Glycogen). Conditions: recombinant GAA, glycogen substrate, Amplex Red glucose oxidase fluorescence; activity change, negative = inhibition: at 76.4 µM (top of the series) unless noted.
Method in brief: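 Recombinant human alpha-glucosidase (4 nM final) hydrolysed bovine liver glycogen (30 ug) for 40 min at 37 C in pH 5.0 citrate/phosphate with 0.01% Tween-20. Released glucose detected by glucose oxidase/Amplex Red, Ex 573/Em 610 nm. Compounds up to 77 uM; AC50 from Hill fits.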
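For activity change, negative = inhibition in this document: 0% = full enzyme reaction and -100% = no-enzyme basal signal.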
Potency is read from the fitted curve at half-maximal effect.

Compound | activity change, negative = inhibition | Potency
Cc1ccc(Nc2ccc(S(=O)(=O)N3CCOCC3)cc2[N+](=O)[O-])c(C)c1 | inactive: 7.5% | –
Cc1ccc(CNC(=O)C2CCCN(Cc3nc(-c4cccc(C)c4)oc3C)C2)cc1 (stereo not given) | inactive: -11.5% [at 76.3 µM] | –
COC(=O)C1=C(C)N(CC(C)C)C(=O)C1 | – | inconclusive: 22.4 µM [inhibitor, partial curve]
O=[N+]([O-])c1ccc(-c2cnc(NO)nc2)cc1 | – | inconclusive: 14.1 µM [inhibitor, partial curve, poor fit]
CCOc1cc(/C=C2/N=C(C)C(C(=O)OC)=C2O)ccc1O | – | inconclusive: 28 µM [inhibitor, partial curve]
CC1(C)Cc2noc(N)c2C(C)(C)N1O | – | inconclusive: 50.1 µM [inhibitor, single point]
COC(=O)C1=C(C)Nc2[nH]c(=S)[nH]c(=O)c2C1c1ccc(OC)cc1 (stereo not given) | – | inconclusive: 31.4 µM [inhibitor, partial curve]
CN(Cc1ccccc1)/C(=N/O)c1cccc(Cl)c1 | – | inconclusive: 3.14 µM [inhibitor, full curve]
O=CN1CCN(C2CC(=O)N(c3ccc(Br)cc3)C2=O)CC1 (stereo not given) | – | inconclusive: 63.1 µM [activator, partial curve, poor fit]
O=C(O)c1ccc2nc(-c3ccco3)c(-c3ccco3)nc2c1 | – | inconclusive: 44.3 µM [inhibitor, partial curve]
COc1ccc(CNC(=O)C(C)Cc2ccccc2)cc1O (stereo not given) | – | inconclusive: 14.1 µM [inhibitor, partial curve]
COc1ccccc1OCC(=O)Nn1c(=S)[nH]c2ncccc2c1=O | – | inconclusive: 39.8 µM [inhibitor, partial curve]
O=c1c2cc(NC(=S)N3CCC(N4CCCCC4)CC3)ccc2nc2n1CCCCC2 | – | inconclusive: 11.2 µM [inhibitor, partial curve]
O=[N+]([O-])c1ccc(O)c(/C=N/Nc2ccccc2[N+](=O)[O-])c1 | inactive: 6.62% | –
NNc1ccc2nncn2n1 | – | inconclusive: 15.8 µM [inhibitor, partial curve]
Cc1ccccc1NC(=O)Nc1cccs1 | – | inconclusive: 17.8 µM [inhibitor, partial curve] and inconclusive: 25.1 µM [inhibitor, partial curve]
CC(=O)c1cc2c(cc1NC(=O)Cn1nc(-c3ccc(F)cc3)ccc1=O)OCO2 | – | inconclusive: 11.2 µM [inhibitor, single point]
CCOc1cc(/C=C2/C(=O)N(c3ccccc3)N=C2C)ccc1OC(=O)c1ccco1 | – | inconclusive: 28.2 µM [inhibitor, single point]
Nc1cccc(-c2nc3ccc(N)cc3s2)c1 | inactive: -2.2% | –
O=C(O)c1cccnc1SCC(=O)C12CC3CC(CC(C3)C1)C2 | inactive: 6.52% | –
CN1CCc2c(sc3c2C(=O)NC(c2ccc(OC(=O)c4ccc(Cl)cc4)cc2)N3)C1 (stereo not given) | – | inconclusive: 35.5 µM [inhibitor, partial curve]
COc1ccc(Cl)cc1NC(=O)Cn1cc(S(=O)(=O)Cc2cccc(Cl)c2)c2ccccc21 | inactive: 7.7% [at 76.3 µM] | –
Cc1ccc(OCC(=O)Nc2ccc3nc(SCC(=O)N(C)c4ccccc4)sc3c2)cc1 | inactive: 7.33% [at 76.3 µM] | –
O=C(NNc1c(Cl)cncc1Cl)c1cccs1 | – | inconclusive: 12.6 µM [inhibitor, partial curve]

Compound | activity change, negative = inhibition | Potency
COc1cc(/C=C/C(=O)OCC(=O)NCCC2=CCCCC2)ccc1O | – | inconclusive: 25.1 µM [inhibitor, partial curve, poor fit]
C/C(CCc1oc2ccccc2c1-c1ccc(C)o1)=N/O | inactive: -1.66% | –
COc1cc(-c2nc3cccc(C)n3c2NCC2CCCO2)ccc1O (stereo not given) | – | inconclusive: 12.5 µM [inhibitor, partial curve]
COc1cccc(N2C(=O)CC(Nc3ccc(N4CCOCC4)cc3)C2=O)c1 (stereo not given) | – | active: 3.52 µM
COc1ccc(NC(=O)c2ccco2)cc1NC(=O)c1ccco1 | inactive: 9.92% | –
O=C(NNc1ccccn1)C(=O)NNS(=O)(=O)c1ccc(F)cc1 | – | inconclusive: 2.24 µM [inhibitor, full curve]
CCOC(=O)c1csc(NC(=O)CCSc2ccccc2)n1 | – | inconclusive: 7.08 µM [inhibitor, partial curve]
CC1=Nc2ccccc2N=C(NC(=O)c2ccccc2)C1c1ccc(Cl)cc1 (stereo not given) | – | inconclusive: 39.8 µM [inhibitor, partial curve]
COc1ccc(C(=O)Oc2ccc(C(c3c(C)[nH][nH]c3=O)c3c(C)[nH][nH]c3=O)cc2OC)cc1 | – | inconclusive: 39.8 µM [inhibitor, partial curve]
O=S(=O)(c1cccc(-c2cn3ccccc3n2)c1)N1CCCC1 | – | inconclusive: 50.1 µM [inhibitor, single point]
CC1CN(C(=O)CCC(=O)NCc2ccccn2)c2ccccc2O1 (stereo not given) | – | inconclusive: 11.2 µM [inhibitor, single point]
CN1CC(C(=O)O)Cc2c1ccc1ccccc21 (stereo not given) | inactive: -25% | –
CNc1nc(-c2ccc3c(c2)CCN3C(=O)c2cccc(F)c2)cs1 | – | inconclusive: 50.1 µM [inhibitor, partial curve, poor fit]
Cc1ccc(NNC(=O)c2ccno2)c(C)c1 | – | inconclusive: 10 µM [inhibitor, full curve]
COC(=O)c1ccc(O)cc1 | inactive: -1.94% | –
COc1c(-c2ccc(O)c(O)c2)oc2cc(O)cc(O)c2c1=O | – | active: 35.5 µM
O=C(Nc1ccc(Cl)cc1)Nc1ccc(N2CCCC2)c(S(=O)(=O)Nc2ccccc2Cl)c1 | – | inconclusive: 22.4 µM [inhibitor, partial curve]
Cc1ccccc1Nc1c(-c2ccncc2)nc2ccc(Cl)cn12 | – | inconclusive: 3.98 µM [inhibitor, full curve] and inconclusive: 31.6 µM [inhibitor, partial curve]
CCOc1ccc(-c2cc3nc(C4CCN(C(=O)OC(C)(C)C)CC4)c(C(=O)Nc4ccc(C)cc4C)cn3n2)cc1 | – | active: 35.5 µM
O=C(N/N=C(\CC(=O)c1cccs1)C(F)(F)F)c1ccncc1 | – | inconclusive: 19.8 µM [inhibitor, partial curve]
Cc1ccc(N(O)C(=O)OCCNC(=O)Nc2ccccc2)cc1 | – | inconclusive: 28.2 µM [inhibitor, single point]
O=C1CSC(c2cn(-c3ccccc3)nc2-c2cc3ccccc3oc2=O)N1Cc1ccco1 (stereo not given) | – | inconclusive: 3.14 µM [inhibitor, partial curve]
CCOc1ccc(N=Cc2c(C)[nH]n(-c3nc4ccccc4[nH]3)c2=O)cc1 | inactive: 3.24% | –
Cc1c(C(=O)NN)[nH]c2ccc([N+](=O)[O-])cc12 | – | inconclusive: 31.6 µM [inhibitor, partial curve]

Compound | activity change, negative = inhibition | Potency
COc1ccc(Br)cc1CNc1ccc(N2CCOCC2)cc1 | – | active: 22.4 µM
COc1cccc(C2=NNC(=NCc3ccccc3)SC2)c1 | – | inconclusive: 50.1 µM [inhibitor, single point]
COCCN1C=C2C(=O)C(C)(OC(=O)CCC(=O)OC)C(=O)C=C2C=C1C1CC1 (stereo not given) | inactive: 7.19% | –
COc1cccc(C2Nc3cccc4cccc(c34)N2)c1 | – | inconclusive: 7.94 µM [inhibitor, full curve]
Cn1c(-c2ccccc2)cnc1NCc1ccccc1 | – | inconclusive: 35.5 µM [inhibitor, partial curve]
CCOC(=O)c1c(N)sc(=S)c2c1CCC2 | – | inconclusive: 39.8 µM [inhibitor, partial curve]
CC(=O)c1cc(NC(=O)c2ccc([N+](=O)[O-])cc2)c(=O)oc1C | – | inconclusive: 7.94 µM [inhibitor, full curve, poor fit]
CCc1ccc(CNC(=O)C2Cc3cc(S(=O)(=O)N4CCCC4)ccc3N2C(C)=O)cc1 (stereo not given) | – | inconclusive: 39.8 µM [inhibitor, single point]
CN1/C(=N\O)c2cccc3cccc1c23 | – | active: 35.2 µM
CCOc1cc(/C=N/Nc2nc(-c3cccs3)c(NC(C)=O)s2)ccc1O | – | inconclusive: 17.8 µM [inhibitor, partial curve]
CCOC(=O)CCCc1sc(N)nc1-c1[nH]c(=O)[nH]c1C | – | inconclusive: 25.1 µM [inhibitor, single point]
CC(CCO)Nc1nc2c([nH]1)c(=O)n(C)c(=O)n2C (stereo not given) | – | inconclusive: 22.4 µM [inhibitor, partial curve]
COc1cc(CN2CCCC(CO)(Cc3cccc(Cl)c3)C2)cc(OC)c1O (stereo not given) | – | inconclusive: 11.2 µM [inhibitor, single point]
CCN(CC(=O)NCc1ccc(F)cc1)C(=O)/C=C/c1ccco1 | inactive: -3.51% | –
Cc1c(Br)cc(C(=O)O)c(C)c1C | inactive: 1.37% | –
C/C(=N\NC(=O)NC1CCCCC1)c1ccco1 | – | inconclusive: 56.2 µM [inhibitor, partial curve, poor fit]
O=C(O)CCCn1cc(NC(=O)c2cccc(F)c2)cn1 | inactive: -13.3% | –
COc1ccc(NC(=O)NNC(=O)c2ccc3ccccc3c2O)cc1OC | – | inconclusive: 50.1 µM [inhibitor, single point]
Nc1[nH]ncc1C(=O)Nc1cccc(C(F)(F)F)c1 | – | active: 11.1 µM
O=C(NNc1ccc(O)cc1)c1ccc(Br)cc1 | – | inconclusive: 31.4 µM [inhibitor, single point]
Cc1cc(C)c(S(=O)(=O)/N=C2\C=CC(=O)C(Cl)=C2)c(C)c1 | – | active: 12.5 µM
COc1ccc(N(CC(=O)N2CCN(c3ccccc3F)CC2)S(=O)(=O)c2c(C)n[nH]c2C)cc1 | – | inconclusive: 6.31 µM [inhibitor, partial curve]
